# Data from the supplement of paper PMC8728848.
# Some of the results follow.
# B1: PX9937J-pdi-523-26-523 (Parabacteroides distasonis) (protein)
# chain: EPVSSISDANYWKSPDLFKAFNIGLHGLLRSQSSYNIFVLGEPRSDIYGDQPFGGEATQGVERFSYNTINAEFTGISNFANFYTTLNQINLMIRRTNETDLLGEAEKNYYLGQAYGLRAYIYFHLLRSWGDVIITTEPTLGSELDISHLDKAASPASEVMDLIKKDIDASEKAFGGDYSYKQGKCYWSKPATLMLKGEVYLWSGRQMGGGTGDYTVAKTALQDLQQNGNLKLQEKFTDVFSFNNKENSEMIFALHSGKEDDFMMWRDYNWRNNMVPQREYMAGYCDETGTPFLEIPGYNLQGLMRYQVKKDHYLKSFREGDTRLKGTLKAVYKKHEDGTLEYIAPIQYKFQGTTLEGSNERSWYDDYPIYRYADALLLLAEAKALLGEDPSTEINAVRERAYGSEYFNAHKNEVAYPNDKGSFYNDNPFEAGDENVMEAILKERLREFFFEGKRWYDLRRFGKDYVLKYTTAQESRLLWPINEGALTNNPALKQTPGY
# Legend:
# Experiment in all cases: glycan array binding signal (z-score within array); higher = stronger binding
# Conditions in all cases: glycan notation: IUPAC condensed, linker removed
# [1] = biological target: Gal(b1-3)GalNAc(b1-3)Gal(a1-4)Gal(b1-4)Glc
# Summary of the method: (§1)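 Glycan array data came from 3228 arrays in the Consortium for Functional Glycomics database, and only arrays with an available protein sequence were kept. Glycan names were put into IUPAC-condensed notation, and columns mapping to the same glycan were averaged. The binding signal is a within-array Z-score, averaged across arrays of one protein sequence run at different concentrations or buffers and across linkers. A negative Z-score can be read as non-binding.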
# [2] = biological target: Gal(b1-3)GalNAc(b1-4)Gal(b1-4)Glc
# Summary of the method: as §1
# [3] = biological target: Gal(b1-3)GalNAc(b1-4)[Neu5Ac(a2-3)]Gal(b1-4)Glc
# Summary of the method: as §1
# Gal(b1-3)GlcNAc = biological target: Gal(b1-3)GlcNAc
# Summary of the method: as §1
# [4] = biological target: Gal(b1-3)GlcNAc(a1-3)Gal(b1-4)GlcNAc
# Summary of the method: as §1
# [5] = biological target: Gal(b1-3)GlcNAc(a1-6)Gal(b1-4)GlcNAc
# Summary of the method: as §1
# Gal(b1-3)GlcNAc(b1-2)Man = biological target: Gal(b1-3)GlcNAc(b1-2)Man
# Summary of the method: as §1
# [6] = biological target: Gal(b1-3)GlcNAc(b1-2)Man(a1-3)[Gal(b1-3)GlcNAc(b1-2)Man(a1-6)]Man(b1-4)GlcNAc(b1-4)GlcNAc
# Summary of the method: as §1
# [7] = biological target: Gal(b1-3)GlcNAc(b1-2)Man(a1-3)[Gal(b1-3)GlcNAc(b1-2)Man(a1-6)]Man(b1-4)GlcNAc(b1-4)[Fuc(a1-6)]GlcNAc
# Summary of the method: as §1
# [8] = biological target: Gal(b1-3)GlcNAc(b1-2)Man(a1-3)[GlcNAc(b1-4)][Gal(b1-3)GlcNAc(b1-2)Man(a1-6)]Man(b1-4)GlcNAc(b1-4)GlcNAc
# Summary of the method: as §1
# [9] = biological target: Gal(b1-3)GlcNAc(b1-2)[Gal(b1-3)GlcNAc(b1-6)]Man(a1-6)[Gal(b1-3)GlcNAc(b1-2)Man(a1-3)]Man(b1-4)GlcNAc(b1-4)GlcNAc
# Summary of the method: as §1
# [10] = biological target: Gal(b1-3)GlcNAc(b1-3)Gal(b1-3)GlcNAc
# Summary of the method: as §1
# [11] = biological target: Gal(b1-3)GlcNAc(b1-3)Gal(b1-4)Glc
# Summary of the method: as §1
# [12] = biological target: Gal(b1-3)GlcNAc(b1-3)Gal(b1-4)GlcNAc
# Summary of the method: as §1
# [13] = biological target: Gal(b1-3)GlcNAc(b1-3)Gal(b1-4)GlcNAc(b1-2)Man(a1-3)[Gal(b1-3)GlcNAc(b1-3)Gal(b1-4)GlcNAc(b1-2)Man(a1-6)]Man(b1-4)GlcNAc(b1-4)GlcNAc
# Summary of the method: as §1
# [14] = biological target: Gal(b1-3)GlcNAc(b1-3)Gal(b1-4)GlcNAc(b1-2)[Gal(b1-3)GlcNAc(b1-3)Gal(b1-4)GlcNAc(b1-6)]Man(a1-6)[Gal(b1-3)GlcNAc(b1-3)Gal(b1-4)GlcNAc(b1-2)Man(a1-3)]Man(b1-4)GlcNAc(b1-4)[Fuc(a1-6)]GlcNAc
# Summary of the method: as §1
# [15] = biological target: Gal(b1-3)GlcNAc(b1-3)Gal(b1-4)GlcNAc(b1-3)Gal(b1-4)GlcNAc(b1-2)[Gal(b1-3)GlcNAc(b1-3)Gal(b1-4)GlcNAc(b1-3)Gal(b1-4)GlcNAc(b1-6)]Man(a1-6)[Gal(b1-3)GlcNAc(b1-3)Gal(b1-4)GlcNAc(b1-3)Gal(b1-4)GlcNAc(b1-2)Man(a1-3)]Man(b1-4)GlcNAc(b1-4)[Fuc(a1-6)]GlcNAc
# Summary of the method: as §1
# [16] = biological target: Gal(b1-3)GlcNAc(b1-3)Gal(b1-4)GlcNAc(b1-6)[Gal(b1-3)GlcNAc(b1-3)]Gal(b1-4)Glc
# Summary of the method: as §1
# [17] = biological target: Gal(b1-3)GlcNAc(b1-3)Gal(b1-4)[Fuc(a1-3)]GlcNAc
# Summary of the method: as §1
# [18] = biological target: Gal(b1-3)GlcNAc(b1-3)Gal(b1-4)[Fuc(a1-3)]GlcNAc(b1-6)[Gal(b1-3)GlcNAc(b1-3)]Gal(b1-4)Glc
# Summary of the method: as §1
# [19] = biological target: Gal(b1-3)GlcNAc(b1-3)GalNAc
# Summary of the method: as §1
# [20] = biological target: Gal(b1-3)GlcNAc(b1-6)Gal(b1-4)GlcNAc
# Summary of the method: as §1
# [21] = biological target: Gal(b1-3)GlcNAc(b1-6)GalNAc
# Summary of the method: as §1
# [22] = biological target: Gal(b1-3)GlcNAc(b1-6)[Gal(b1-3)]GalNAc
# Summary of the method: as §1
# Gal(b1-3)GlcNAc6S = biological target: Gal(b1-3)GlcNAc6S
# Summary of the method: as §1
# [23] = biological target: Gal(b1-3)[Fuc(a1-4)]GlcNAc
# Summary of the method: as §1
# [24] = biological target: Gal(b1-3)[Fuc(a1-4)]GlcNAc(b1-2)Man
# Summary of the method: as §1
# [25] = biological target: Gal(b1-3)[Fuc(a1-4)]GlcNAc(b1-2)Man(a1-3)[Gal(b1-3)[Fuc(a1-4)]GlcNAc(b1-2)Man(a1-6)]Man(b1-4)GlcNAc(b1-4)[Fuc(a1-6)]GlcNAc
# Summary of the method: as §1
# [26] = biological target: Gal(b1-3)[Fuc(a1-4)]GlcNAc(b1-3)Gal(b1-3)[Fuc(a1-4)]GlcNAc
# Summary of the method: as §1
# [27] = biological target: Gal(b1-3)[Fuc(a1-4)]GlcNAc(b1-3)Gal(b1-4)[Fuc(a1-3)]GlcNAc
# Summary of the method: as §1
# [28] = biological target: Gal(b1-3)[Fuc(a1-4)]GlcNAc(b1-6)GalNAc
# Summary of the method: as §1
# [29] = biological target: Gal(b1-3)[GlcNAc(b1-6)]GalNAc
# Summary of the method: as §1
# [30] = biological target: Gal(b1-3)[Neu5Ac(a2-6)]GalNAc
# Summary of the method: as §1
# [31] = biological target: Gal(b1-3)[Neu5Ac(a2-6)]GlcNAc(b1-4)Gal(b1-4)Glc
# Summary of the method: as §1
# [32] = biological target: Gal(b1-3)[Neu5Ac(b2-6)]GalNAc
# Summary of the method: as §1
# Gal(b1-4)Gal = biological target: Gal(b1-4)Gal
# Summary of the method: as §1
# [33] = biological target: Gal(b1-4)GalNAc(a1-3)[Fuc(a1-2)]Gal(b1-4)GlcNAc
# Summary of the method: as §1
# [34] = biological target: Gal(b1-4)GalNAc(b1-3)[Fuc(a1-2)]Gal(b1-4)GlcNAc
# Summary of the method: as §1
binder,measurement,setting,value
B1,glycan array binding signal (z-score),[1],-0.921
same,glycan array binding signal (z-score),[2],-0.204
same,glycan array binding signal (z-score),[3],0.096
same,glycan array binding signal (z-score),Gal(b1-3)GlcNAc,-0.187
same,glycan array binding signal (z-score),[4],-0.385
same,glycan array binding signal (z-score),[5],0.058
same,glycan array binding signal (z-score),Gal(b1-3)GlcNAc(b1-2)Man,-0.347
same,glycan array binding signal (z-score),[6],-0.12
same,glycan array binding signal (z-score),[7],-0.227
same,glycan array binding signal (z-score),[8],0.082
same,glycan array binding signal (z-score),[9],-0.11
same,glycan array binding signal (z-score),[10],-0.607
same,glycan array binding signal (z-score),[11],0.235
same,glycan array binding signal (z-score),[12],-0.577
same,glycan array binding signal (z-score),[13],3.05
same,glycan array binding signal (z-score),[14],1.49
same,glycan array binding signal (z-score),[15],0.518
same,glycan array binding signal (z-score),[16],0.461
same,glycan array binding signal (z-score),[17],-0.102
same,glycan array binding signal (z-score),[18],-0.698
same,glycan array binding signal (z-score),[19],-0.708
same,glycan array binding signal (z-score),[20],-0.374
same,glycan array binding signal (z-score),[21],0.249
same,glycan array binding signal (z-score),[22],0.577
same,glycan array binding signal (z-score),Gal(b1-3)GlcNAc6S,-0.107
same,glycan array binding signal (z-score),[23],-0.24
same,glycan array binding signal (z-score),[24],0.139
same,glycan array binding signal (z-score),[25],0.959
same,glycan array binding signal (z-score),[26],0.257
same,glycan array binding signal (z-score),[27],-0.34
same,glycan array binding signal (z-score),[28],-0.41
same,glycan array binding signal (z-score),[29],-0.715
same,glycan array binding signal (z-score),[30],-0.22
same,glycan array binding signal (z-score),[31],-0.565
same,glycan array binding signal (z-score),[32],-0.659
same,glycan array binding signal (z-score),Gal(b1-4)Gal,-0.185
same,glycan array binding signal (z-score),[33],-0.573
same,glycan array binding signal (z-score),[34],-0.766
